The list shows a part of the results.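 The calls were made as follows: active = permutation test q below 0.05 after Benjamini-Hochberg correction; inactive = q of 0.05 or more.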
Tested on: A549
Test: mean average precision of replicate retrieval against DMSO controls (Cell Painting phenotypic activity) (fraction (0-1)); higher = stronger, more reproducible morphological phenotype distinct from DMSO; extreme values may be limits of the assay
Conditions: 48 h; 5 µM
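Also: cosine similarity of well-level aggregated Cell Painting profiles ranks each compound's replicate wells against DMSO wells, four replicate plates, significance from 100,000 rank shuffles.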

**Q.** `O=C(O)c1ccccc1O` was tested. Which mean average precision did it give?
**A.** The mean average precision was active: 0.531.

**Q.** How did the mean average precision turn out when `CO[C@H]1C=CO[C@@]2(C)Oc3c(C)c(O)c4c(O)c(cc(O)c4c3C2=O)NC(=O)/C(C)=C\C=C/[C@H](C)[C@H](O)[C@@H](C)[C@@H](O)[C@@H](C)[C@H](OC(C)=O)[C@@H]1C` was run?
**A.** The mean average precision was active: 0.448.

**Q.** For `Nc1ncn([C@@H]2O[C@H](CO)[C@@H](O)[C@H]2O)c(=O)n1`, which mean average precision is on record?
**A.** Its mean average precision is active: 1.

**Q.** `OCCn1cc(-c2cnc3nnn(Cc4ccc5ncccc5c4)c3n2)cn1` was tested. Which mean average precision did it give?
**A.** The mean average precision was active: 0.738.

**Q.** How did the mean average precision turn out when `C[S+]([O-])c1ccc(-c2nc(-c3ccc(F)cc3)c(-c3ccncc3)[nH]2)cc1` (stereo not given) was run?
**A.** The mean average precision was active: 1.

**Q.** `NC(=O)CC[C@H](N)C(=O)O` was tested. Which mean average precision did it give?
**A.** Its mean average precision is active: 0.678.

**Q.** For `OC(CN1CCNCC1)Cn1c2ccc(Br)cc2c2cc(Br)ccc21` (stereo not given), which mean average precision is on record?
**A.** The mean average precision was active: 1.

**Q.** How did the mean average precision turn out when `CCOC(=O)c1c2c3c(cccc3[nH]c1=O)C(=O)c1ccccc1-2` was run?
**A.** Its mean average precision is active: 0.979.

**Q.** `CC(C)CC(=O)Nc1n[nH]c2c1CN(C(=O)C1CCN(C)CC1)C2(C)C` was tested. Which mean average precision did it give?
**A.** The mean average precision was active: 1.

**Q.** Which mean average precision does the source give for `Nc1ncnc2c1c(-c1cccc(OCc3ccccc3)c1)cn2C1CC(CN2CCCC2)C1` (stereo not given) here?
**A.** Its mean average precision is active: 1.

**Q.** `Cc1[nH]c(/C=C2\C(=O)Nc3ccccc32)c(C)c1CCC(=O)O` was tested. Which mean average precision did it give?
**A.** Its mean average precision is active: 0.951.

**Q.** `CNC(=O)[C@H](Cc1ccccc1)NC(=O)[C@H](CC(C)C)[C@H](CSc1cccs1)C(=O)NO` was tested. Which mean average precision did it give?
**A.** The mean average precision was active: 1.

**Q.** `Nc1nc(F)nc2c1ncn2[C@@H]1O[C@H](COP(=O)(O)O)[C@@H](O)[C@@H]1O` was tested. Which mean average precision did it give?
**A.** Its mean average precision is active: 1.

**Q.** For `CC(=O)SCC(Cc1ccccc1)C(=O)NCC(=O)OCc1ccccc1` (stereo not given), which mean average precision is on record?
**A.** The mean average precision was active: 0.729.

**Q.** `CCCCCCCCO` was tested. Which mean average precision did it give?
**A.** The mean average precision was active: 0.446.

**Q.** How did the mean average precision turn out when `CN(C)CC/C=C1/c2ccccc2COc2ccc(CC(=O)O)cc21` was run?
**A.** The mean average precision was active: 0.576.

**Q.** For `COc1ccc(Cl)cc1C(=O)NCCc1ccc(S(=O)(=O)NC(=O)NC2CCCCC2)cc1`, which mean average precision is on record?
**A.** Its mean average precision is active: 0.767.

**Q.** With `C=C[C@H]1CN2CC[C@H]1C[C@@H]2[C@H](O)c1ccnc2ccc(OC)cc12` as the compound, how does the mean average precision read?
**A.** The mean average precision was active: 0.787.

**Q.** `CN(C)C(=O)C(CCN1CCC(O)(c2ccc(Cl)cc2)CC1)(c1ccccc1)c1ccccc1` was tested. Which mean average precision did it give?
**A.** Its mean average precision is active: 1.

**Q.** `CNC(=O)[C@H](Cc1c[nH]c2ccccc12)NC(=O)[C@@H](CC(=O)NO)CC(C)C` was tested. Which mean average precision did it give?
**A.** Its mean average precision is active: 0.931.

**Q.** Which mean average precision does the source give for `CC(C)[C@H]1c2ccc(F)cc2CC[C@@]1(CCN(C)CCCc1nc2ccccc2[nH]1)OC(=O)C1CC1` here?
**A.** Its mean average precision is active: 1.

**Q.** With `COCC(=O)NC/C=C/c1ccc2ncnc(Nc3ccc(Oc4ccc(C)nc4)c(C)c3)c2c1` as the compound, how does the mean average precision read?
**A.** Its mean average precision is active: 1.

**Q.** With `C(#Cc1nc2ncccc2nc1OCCN1CCCC1)c1ccccc1` as the compound, how does the mean average precision read?
**A.** Its mean average precision is active: 1.

**Q.** With `C=C[C@H]1CN2CC[C@H]1C[C@@H]2[C@@H](O)c1ccnc2ccc(OC)cc12` as the compound, how does the mean average precision read?
**A.** The mean average precision was active: 0.979.

**Q.** How did the mean average precision turn out when `CC(C)(C)n1nc(-c2ccc(Cl)cc2)c2c(N)ncnc21` was run?
**A.** The mean average precision was active: 1.

**Q.** With `CC(C)COCC(CN(Cc1ccccc1)c1ccccc1)N1CCCC1` (stereo not given) as the compound, how does the mean average precision read?
**A.** The mean average precision was active: 1.

**Q.** For `CN(C)c1ccc(O)c2c1C[C@H]1C[C@H]3[C@H](N(C)C)C(=O)C(C(N)=O)C(=O)[C@@]3(O)C(=O)C1C2=O` (stereo not given in full), which mean average precision is on record?
**A.** The mean average precision was active: 0.411.

**Q.** How did the mean average precision turn out when `O=C(O)/C=C/c1ccc(Cn2ccnc2)cc1` was run?
**A.** The mean average precision was active: 0.365.

**Q.** With `C/C(=C\c1csc(C)n1)[C@@H]1C[C@@H]2O[C@]2(C)CCC[C@H](C)[C@H](O)[C@@H](C)C(=O)C(C)(C)[C@@H](O)CC(=O)N1` as the compound, how does the mean average precision read?
**A.** The mean average precision was active: 1.

**Q.** For `Cc1cc(Cl)ccc1OCCCC(=O)NO`, which mean average precision is on record?
**A.** The mean average precision was active: 1.

**Q.** How did the mean average precision turn out when `CCCCOc1cc(CC2CNC(=O)N2)ccc1OC` (stereo not given) was run?
**A.** The mean average precision was active: 0.393.

**Q.** With `O=C1NC(=O)c2cc(Nc3ccc(F)cc3)c(Nc3ccc(F)cc3)cc21` as the compound, how does the mean average precision read?
**A.** The mean average precision was active: 0.73.

**Q.** Which mean average precision does the source give for `O=C1OC(c2ccc(O)cc2)(c2ccc(O)cc2)c2ccccc21` here?
**A.** Its mean average precision is inactive: 0.281.

**Q.** `Cc1cnc(-c2ccccc2C(C)C)nc1NCc1ccc(-n2ccnn2)cc1` was tested. Which mean average precision did it give?
**A.** The mean average precision was active: 1.

**Q.** For `CCOC(=O)C1=C(C)NC(C)=C(C(=O)OC)C1c1cccc(Cl)c1Cl` (stereo not given), which mean average precision is on record?
**A.** Its mean average precision is active: 0.883.

Tested on: U2OS
Test: as above
Conditions: 24 h; 5 µM

**Q.** Which mean average precision does the source give for `O=C(O)c1ccccc1O` here?
**A.** Its mean average precision is active: 0.844.

**Q.** With `CO[C@H]1C=CO[C@@]2(C)Oc3c(C)c(O)c4c(O)c(cc(O)c4c3C2=O)NC(=O)/C(C)=C\C=C/[C@H](C)[C@H](O)[C@@H](C)[C@@H](O)[C@@H](C)[C@H](OC(C)=O)[C@@H]1C` as the compound, how does the mean average precision read?
**A.** The mean average precision was inactive: 0.24.

**Q.** For `Nc1ncn([C@@H]2O[C@H](CO)[C@@H](O)[C@H]2O)c(=O)n1`, which mean average precision is on record?
**A.** The mean average precision was active: 0.99.

**Q.** `OCCn1cc(-c2cnc3nnn(Cc4ccc5ncccc5c4)c3n2)cn1` was tested. Which mean average precision did it give?
**A.** Its mean average precision is inactive: 0.0804.

**Q.** How did the mean average precision turn out when `C[S+]([O-])c1ccc(-c2nc(-c3ccc(F)cc3)c(-c3ccncc3)[nH]2)cc1` (stereo not given) was run?
**A.** The mean average precision was active: 1.

**Q.** With `NC(=O)CC[C@H](N)C(=O)O` as the compound, how does the mean average precision read?
**A.** Its mean average precision is active: 0.386.

**Q.** How did the mean average precision turn out when `OC(CN1CCNCC1)Cn1c2ccc(Br)cc2c2cc(Br)ccc21` (stereo not given) was run?
**A.** The mean average precision was active: 1.

**Q.** Which mean average precision does the source give for `CCOC(=O)c1c2c3c(cccc3[nH]c1=O)C(=O)c1ccccc1-2` here?
**A.** Its mean average precision is active: 0.708.

**Q.** How did the mean average precision turn out when `CC(C)CC(=O)Nc1n[nH]c2c1CN(C(=O)C1CCN(C)CC1)C2(C)C` was run?
**A.** Its mean average precision is active: 1.

**Q.** Which mean average precision does the source give for `Nc1ncnc2c1c(-c1cccc(OCc3ccccc3)c1)cn2C1CC(CN2CCCC2)C1` (stereo not given) here?
**A.** Its mean average precision is active: 1.

**Q.** With `Cc1[nH]c(/C=C2\C(=O)Nc3ccccc32)c(C)c1CCC(=O)O` as the compound, how does the mean average precision read?
**A.** Its mean average precision is active: 0.75.

**Q.** For `CNC(=O)[C@H](Cc1ccccc1)NC(=O)[C@H](CC(C)C)[C@H](CSc1cccs1)C(=O)NO`, which mean average precision is on record?
**A.** Its mean average precision is active: 1.

**Q.** For `Nc1nc(F)nc2c1ncn2[C@@H]1O[C@H](COP(=O)(O)O)[C@@H](O)[C@@H]1O`, which mean average precision is on record?
**A.** Its mean average precision is active: 1.

**Q.** For `CC(=O)SCC(Cc1ccccc1)C(=O)NCC(=O)OCc1ccccc1` (stereo not given), which mean average precision is on record?
**A.** The mean average precision was inactive: 0.288.

**Q.** How did the mean average precision turn out when `CCCCCCCCO` was run?
**A.** Its mean average precision is inactive: 0.316.

**Q.** How did the mean average precision turn out when `CN(C)CC/C=C1/c2ccccc2COc2ccc(CC(=O)O)cc21` was run?
**A.** Its mean average precision is active: 0.509.

**Q.** With `COc1ccc(Cl)cc1C(=O)NCCc1ccc(S(=O)(=O)NC(=O)NC2CCCCC2)cc1` as the compound, how does the mean average precision read?
**A.** The mean average precision was active: 0.378.

**Q.** `C=C[C@H]1CN2CC[C@H]1C[C@@H]2[C@H](O)c1ccnc2ccc(OC)cc12` was tested. Which mean average precision did it give?
**A.** Its mean average precision is active: 0.456.

**Q.** `CN(C)C(=O)C(CCN1CCC(O)(c2ccc(Cl)cc2)CC1)(c1ccccc1)c1ccccc1` was tested. Which mean average precision did it give?
**A.** Its mean average precision is active: 1.

**Q.** With `CNC(=O)[C@H](Cc1c[nH]c2ccccc12)NC(=O)[C@@H](CC(=O)NO)CC(C)C` as the compound, how does the mean average precision read?
**A.** The mean average precision was active: 0.77.

**Q.** With `CC(C)[C@H]1c2ccc(F)cc2CC[C@@]1(CCN(C)CCCc1nc2ccccc2[nH]1)OC(=O)C1CC1` as the compound, how does the mean average precision read?
**A.** Its mean average precision is active: 1.

**Q.** `COCC(=O)NC/C=C/c1ccc2ncnc(Nc3ccc(Oc4ccc(C)nc4)c(C)c3)c2c1` was tested. Which mean average precision did it give?
**A.** Its mean average precision is active: 0.951.

**Q.** `C(#Cc1nc2ncccc2nc1OCCN1CCCC1)c1ccccc1` was tested. Which mean average precision did it give?
**A.** The mean average precision was active: 1.

**Q.** How did the mean average precision turn out when `C=C[C@H]1CN2CC[C@H]1C[C@@H]2[C@@H](O)c1ccnc2ccc(OC)cc12` was run?
**A.** The mean average precision was inactive: 0.219.

**Q.** `CC(C)(C)n1nc(-c2ccc(Cl)cc2)c2c(N)ncnc21` was tested. Which mean average precision did it give?
**A.** The mean average precision was active: 1.

**Q.** How did the mean average precision turn out when `CC(C)COCC(CN(Cc1ccccc1)c1ccccc1)N1CCCC1` (stereo not given) was run?
**A.** Its mean average precision is active: 0.86.

**Q.** How did the mean average precision turn out when `CN(C)c1ccc(O)c2c1C[C@H]1C[C@H]3[C@H](N(C)C)C(=O)C(C(N)=O)C(=O)[C@@]3(O)C(=O)C1C2=O` (stereo not given in full) was run?
**A.** Its mean average precision is active: 0.533.

**Q.** For `O=C(O)/C=C/c1ccc(Cn2ccnc2)cc1`, which mean average precision is on record?
**A.** The mean average precision was active: 0.348.

**Q.** How did the mean average precision turn out when `C/C(=C\c1csc(C)n1)[C@@H]1C[C@@H]2O[C@]2(C)CCC[C@H](C)[C@H](O)[C@@H](C)C(=O)C(C)(C)[C@@H](O)CC(=O)N1` was run?
**A.** The mean average precision was active: 1.

**Q.** How did the mean average precision turn out when `Cc1cc(Cl)ccc1OCCCC(=O)NO` was run?
**A.** The mean average precision was active: 0.979.

**Q.** For `CCCCOc1cc(CC2CNC(=O)N2)ccc1OC` (stereo not given), which mean average precision is on record?
**A.** The mean average precision was inactive: 0.0982.

**Q.** Which mean average precision does the source give for `O=C1NC(=O)c2cc(Nc3ccc(F)cc3)c(Nc3ccc(F)cc3)cc21` here?
**A.** Its mean average precision is inactive: 0.363.

**Q.** `O=C1OC(c2ccc(O)cc2)(c2ccc(O)cc2)c2ccccc21` was tested. Which mean average precision did it give?
**A.** The mean average precision was active: 0.917.

**Q.** For `Cc1cnc(-c2ccccc2C(C)C)nc1NCc1ccc(-n2ccnn2)cc1`, which mean average precision is on record?
**A.** The mean average precision was active: 0.807.

**Q.** How did the mean average precision turn out when `CCOC(=O)C1=C(C)NC(C)=C(C(=O)OC)C1c1cccc(Cl)c1Cl` (stereo not given) was run?
**A.** Its mean average precision is inactive: 0.216.

Reference: the supplement of paper PMC11166567
